The other results are listed elsewhere or left out. At the low end of the ranking the order means little.
biological target: T1, GST-Rok-C97-191 (UniProt O34857); test: protein binding microarray; conditions: Rok is a gene silencer of Bacillus subtilis; high values mean tight binding; most listed sequences are background and not binding sites; double strand, one strand shown;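 also: rank score from −0.5 (least bound) to 0.5 (best bound)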
T1 sequence: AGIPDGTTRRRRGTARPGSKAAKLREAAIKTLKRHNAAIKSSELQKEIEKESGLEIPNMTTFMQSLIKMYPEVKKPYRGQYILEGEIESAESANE

Sequence	binding signal
GACTGTCA	-0.067 E-score
GCGGGCCC	-0.284 E-score
TCTACCCA	0.234 E-score
ACTATCTC	0.263 E-score
ATTGGACC	-0.272 E-score
GGAGTGAC	-0.282 E-score
AACATACG	0.0602 E-score
CAACCGTA	0.0759 E-score
CCCTTGAG	-0.0319 E-score
ATCCGCGG	-0.117 E-score
AGCTATTA	0.315 E-score
GCATTGCA	-0.0382 E-score
AAAATAAA	0.154 E-score
CCTTAAGC	-0.126 E-score
GCCCTGAA	-0.131 E-score
GGACTAAC	0.0504 E-score
GCCAATCC	-0.27 E-score
GATCAAGA	0.0247 E-score
CGTTAAGC	-0.157 E-score
ATCATGAT	-0.00709 E-score
GCCGGTAC	-0.168 E-score
ATTCTGGG	-0.0988 E-score
CTCTTCAG	-0.0311 E-score
ACCTTGCT	-0.156 E-score

Sequence	binding signal
CTTCGTTA	-0.0688 E-score
AATATACA	0.394 E-score
GAGAACCA	0.0926 E-score
AGTCCACG	-0.283 E-score
AGATCTAA	0.112 E-score
AGTCCGGG	-0.196 E-score
CAACTGTA	0.111 E-score
ATGGTCCG	-0.132 E-score
ATGTTCGG	-0.0897 E-score
AGCTTCGG	-0.168 E-score
TCACGGGA	-0.138 E-score
ACCGACCA	-0.0187 E-score
ATTTTAGC	0.242 E-score
CTCCAAGC	-0.235 E-score
AAGTATCC	0.0955 E-score
AGCGTCAT	-0.157 E-score
CAAGCTAC	0.0991 E-score
GTGAGAGA	-0.15 E-score
AACATTTG	0.0606 E-score
CGTGACTC	-0.263 E-score
GACCCAAC	-0.142 E-score
GCTGGAGA	-0.0975 E-score
GAGTCATA	0.0358 E-score
AAACCAGA	0.00552 E-score

Sequence	binding signal
ATGACGTC	0.114 E-score
GATTCCGC	-0.235 E-score
AGTCAAAA	0.0923 E-score
ACCCACCT	-0.198 E-score
AAGCCTAT	0.213 E-score
CATCGGCC	-0.226 E-score
ACACATGG	0.126 E-score
ACTCCGGG	-0.119 E-score
GGCCCCAA	-0.279 E-score
AGAAGTAT	0.292 E-score
AACCAAAA	0.0375 E-score
ACAAAGCG	0.0314 E-score
TCGGGCAA	-0.0458 E-score
ATACCGCG	0.0536 E-score
ACTTTGTC	-0.075 E-score
CTATACGA	0.00609 E-score
CACCAGTC	-0.25 E-score
CCCGCCCA	-0.0203 E-score
CCGACCAG	-0.107 E-score
CATCATTC	0.0109 E-score
AGCTGTAC	0.0313 E-score
GACTGTAA	-0.00114 E-score
GACAAACC	0.0322 E-score
AGCCAATG	-0.162 E-score

Sequence	binding signal
TGATACCA	0.171 E-score
CGATGGTC	-0.198 E-score
CAGAGGGC	-0.25 E-score
GTGCGCAC	0.0744 E-score
AACGACGT	0.0826 E-score
GCTTTGAA	-0.0522 E-score
ATCGCCTC	-0.136 E-score
GCATGAAC	-0.3 E-score
AATTCTCT	0.00617 E-score
TATGGGGA	-0.072 E-score
CCGCGGGA	-0.156 E-score
AAGACCGC	-0.159 E-score
ACGGTCCG	-0.237 E-score
ATGCTTCC	-0.269 E-score
AAAACTGA	-0.0171 E-score
CTAAGGCC	-0.157 E-score
CGTGTCTA	0.148 E-score
CGTCAGCA	-0.273 E-score
GACCACAC	-0.0705 E-score
ATAGATCC	0.207 E-score
AGAGTAAA	0.113 E-score
CGTTATAG	0.109 E-score
